Measured values: the RNAGym collection of RNA variant scans (doi:10.7554/elife.90254)
Read counts are not given, so values of variants with three or more changes are uncertain.

B1: LINE1-full (parent)
chain: UACGUAGGUGGUUUUCCCCUGAUAGUGCUAAGGGGGCCUGGAAGUUUGGACUGGGCAGAGCUCAACACAGCGUGGCAAAGUGGCUGUGGCUAGACUGCCUCUCUGGAUUCCUCGUCACUCAGCAGGGCAUCUCUGAGAGAAAUGCC

Variants of: B1
Experiment: self-cleavage, relative activity (ratio to wild type); higher = more cleavage; in vitro, sequencing; the parent is a self-cleaving ribozyme
Work on U20A A65U A78G A79G yielded a self-cleavage of 0.19. For A43U A78G U87A A129G C146A, the self-cleavage was 0.1. U15C A67C G127U gave a self-cleavage of 0.1. U14A A65G A77G A78U U85A G89A gave a self-cleavage of 0.07. Work on U14C A69G U108C yielded a self-cleavage of 0.37. U14C A42G A77G showed a self-cleavage of 1.15. Variant G36U G80U U91G A129G has a self-cleavage of 0.02. In the case of A6G U13C A64G A79G, the self-cleavage is reported as 0. A24U U119A A121G U143C gave a self-cleavage of 0.77. Work on A65G U119C C123U yielded a self-cleavage of 0.03. Work on U9C A65U G127U yielded a self-cleavage of 0.18. A57U U100A A121G showed a self-cleavage of 0. With U62C U81C G89A U143C the self-cleavage was 0. In the case of U20C U26G U96A, the self-cleavage is reported as 0.28. In the case of U13A A107U C113U A129U, the self-cleavage is reported as 0.96. For U102G U115A A124G U132C A141G, the self-cleavage was 0. Work on A50G A92G C113U yielded a self-cleavage of 0.15. With A42G U115C U130G the self-cleavage was 0. Work on A43G U46C U134A yielded a self-cleavage of 1.96. U12C U13C A59G C63U gave a self-cleavage of 0.12. Variant U9A A79G G114U U119C A140G has a self-cleavage of 0.68. Variant U13C A30G U45A G75U U134A has a self-cleavage of 0.22. U39A U62C U73C showed a self-cleavage of 0.09. With A6U G10A G48U the self-cleavage was 0.35. For U13C G126A A140U, the self-cleavage was 1.59. With U9C U14G U15C the self-cleavage was 1.31. For A94G A107G C113A, the self-cleavage was 0. U102C A136G A142G showed a self-cleavage of 0.97. For U29C A67G A142G, the self-cleavage was 0.62. For U104A A121U A124G, the self-cleavage was 0.44. In the case of G40U U115C U134A, the self-cleavage is reported as 0.61. Variant U14C U47C A138G has a self-cleavage of 1.96. Variant A22G A50G U115A A140U has a self-cleavage of 1.32. In the case of C61G A65G U96C U109C A142G, the self-cleavage is reported as 0. Work on U13C A65G U73C yielded a self-cleavage of 0. With U12G A30G U62C U134A the self-cleavage was 0. For U14C U81C A129U U134C A142G, the self-cleavage was 1.15. With G72A A79G C110A C116U the self-cleavage was 1.05. Variant A77U U96C U112C U115C U134A has a self-cleavage of 0. A69G C76A A136G showed a self-cleavage of 0.97. Variant U14C U26A A57U A136G A142G has a self-cleavage of 0.24. Variant A79G A138G A142G has a self-cleavage of 1.02. For U39C U47C A64G U130A A140G, the self-cleavage was 0. Work on U39A U47A U108A U132C A140G yielded a self-cleavage of 1.12. With U12C U39A A43U A78G U119C the self-cleavage was 1.07. U62A U85A U108C A138G gave a self-cleavage of 0. Variant U13C A50G U85C A136U has a self-cleavage of 0.19. Work on C63U A69G U115C G127A yielded a self-cleavage of 0.06. Work on U12C U108C U132C yielded a self-cleavage of 1.6. Work on U26C U46A A78G A124U yielded a self-cleavage of 1.84. U13C U96C A124G showed a self-cleavage of 0. U13C U81C U119C A124G showed a self-cleavage of 1.31. U47A U73C C99A gave a self-cleavage of 1. Variant U5A A22G U62C has a self-cleavage of 0. In the case of A22G U26A A57G A92U U119C A121U A129G, the self-cleavage is reported as 0. With U20G A50G G80U the self-cleavage was 1.09. In the case of U26A U109A U132C A142G, the self-cleavage is reported as 1.53. For U47A A78G A79G, the self-cleavage was 1.1. Variant U14C U26C U85C G122U has a self-cleavage of 0.15. For U39A A65G A78G A117G, the self-cleavage was 0. For U9A G53A A140G, the self-cleavage was 1.02. U26C A78G A138G gave a self-cleavage of 1.59. For U13C G53A C61U A124U, the self-cleavage was 0.06. G72A A124G U134A gave a self-cleavage of 0.37. In the case of G11C A69G G72A, the self-cleavage is reported as 0.44. U15A A50G A141G gave a self-cleavage of 1.2. Work on U13C A67G G114A yielded a self-cleavage of 0.62. Variant U14C G48U A59U G70A has a self-cleavage of 0.08. In the case of U81C U130C U143C, the self-cleavage is reported as 0.98. U9C U115C U130A A142G U143C showed a self-cleavage of 0. Variant A22G U39A A79U U143C has a self-cleavage of 1.1. Work on G89A A94G A121G U143C yielded a self-cleavage of 0.08. For U14C A50G U108A, the self-cleavage was 1.84. In the case of G8U U45C U96A A142G, the self-cleavage is reported as 0.09. Variant A42G A94G U102C has a self-cleavage of 0.77. Work on U23C A24G G75A A136U yielded a self-cleavage of 0.59. U15C C18U A69G gave a self-cleavage of 0.96. With G4U U52A U87G U119C the self-cleavage was 0.31. With U52C C98U C101U A136G the self-cleavage was 0.81. With U12C U47C U102C A142G the self-cleavage was 1.47. C19U A78G A140G showed a self-cleavage of 1.39. U12C U91C A92G A138G showed a self-cleavage of 0.24. With U15C A30U A67G A79G the self-cleavage was 0.61. Variant U1C G10A A43G G83A has a self-cleavage of 0.27. Work on U14A A92U U104A yielded a self-cleavage of 0.63. Variant U47A U73C A140G has a self-cleavage of 1.46. Variant C19A A50U A77G U91C has a self-cleavage of 0.55. G35C U45C U47C gave a self-cleavage of 1.96. In the case of U46C A79G U96A, the self-cleavage is reported as 0.1. Work on U13C U52C A92G A141G yielded a self-cleavage of 0.38. In the case of U52G U62C U134A A142G, the self-cleavage is reported as 0. Variant U13C U52C A94G has a self-cleavage of 0.51. In the case of U47A A64U A67G U130C, the self-cleavage is reported as 0.18. With A24G U91A U134C the self-cleavage was 1.41. In the case of U104C A121G U134C, the self-cleavage is reported as 1.31. A31G U91C C110U showed a self-cleavage of 0.94. G40A A117U A141G G144A gave a self-cleavage of 0.59. For U132A U134A A141G, the self-cleavage was 1.36. U39C A42G U100A U130C gave a self-cleavage of 1.22. With C37U A77G A117G the self-cleavage was 1.99. In the case of U15A C133U A138G A140G, the self-cleavage is reported as 1.34. A67G U96A U102A A129U U134C showed a self-cleavage of 0. In the case of U14G A30U U115A A121U, the self-cleavage is reported as 1.84. U20G A31G A43G C68U A94G showed a self-cleavage of 0. U20A U134C A140G gave a self-cleavage of 1.85. Variant U13C A22G G27C A140C has a self-cleavage of 0.23. In the case of A30U U62C U130C, the self-cleavage is reported as 0.06. For A42U U47A U87C U102C U108C A129U U134A A136U, the self-cleavage was 0.37. U9C A50G U104A showed a self-cleavage of 1.16. A59U A94G G106A U109C showed a self-cleavage of 2.47. G34A A79G C110U gave a self-cleavage of 1.29. With U26G G35A U39A A124G the self-cleavage was 1.47. Work on U39C U102G U115A yielded a self-cleavage of 0.66. U23C U45A U47C G54A U130C showed a self-cleavage of 1.18. For A2G A43G A107G U130C, the self-cleavage was 0.92. In the case of A2U A30U C51U U102C, the self-cleavage is reported as 0.5. For U23G G36A A42U G97A U115A, the self-cleavage was 0.03. In the case of U5A C66U U73A, the self-cleavage is reported as 0.05. For U46C A107G U115A, the self-cleavage was 1.47. With U14C C56A U81C the self-cleavage was 0.04. For A30G U52A U115C, the self-cleavage was 0.86. U52A G55U C95U gave a self-cleavage of 0.03. U26C G32A U39A C113U showed a self-cleavage of 0.68. For U13C U119A A124U A138G, the self-cleavage was 2.08. Work on U47A A65C U87C yielded a self-cleavage of 0.03. With G8C C18A G126C A138U the self-cleavage was 1.15. For U39C A57G G125A, the self-cleavage was 0.16. In the case of A2G U62C U143C, the self-cleavage is reported as 0.24. Work on U5C C118U U134C yielded a self-cleavage of 1.22. With U15C G53U A121G the self-cleavage was 1.53. G8A U20A A77G U96C showed a self-cleavage of 0.3. G21A U73C G74U U108A showed a self-cleavage of 1.92. In the case of A22C U81C C103A, the self-cleavage is reported as 1.53. In the case of G4U A50U A78G C113A U115C, the self-cleavage is reported as 1.11. U29C U39A A77G C128U showed a self-cleavage of 2.21. A77G A107G A142G U143A showed a self-cleavage of 2.55. Variant A78U A129G A140G has a self-cleavage of 2.53. Work on A79G U115A A121G yielded a self-cleavage of 2.09. A50U U73A C103U gave a self-cleavage of 1.32. Variant C19U A43C U73A G75A A121U has a self-cleavage of 1.19. Work on A30U G40U G70U A121C yielded a self-cleavage of 0. With A22G U47A U134A the self-cleavage was 0.37. For C37U U45A A67G, the self-cleavage was 0.24. Variant U9C U52G G72A A107G U115C C118A U132A U143A has a self-cleavage of 2.46. In the case of U12G A42U A50G G125U, the self-cleavage is reported as 1.01. U119A U134C A138G showed a self-cleavage of 1.55. Variant U47A G72A U102C has a self-cleavage of 1.21. Variant U13A U81C U102A has a self-cleavage of 1.89. A43G G44U U96C U109C A117G showed a self-cleavage of 0.84. With U9C U15C U109A U132C the self-cleavage was 2.22. For A69G U115C A142G, the self-cleavage was 1.02. In the case of U26A A107G G127A, the self-cleavage is reported as 1.36. G7C U15C U45C A65G U100C C113U showed a self-cleavage of 0.51. U15C U81A A94G U109C U132C gave a self-cleavage of 0. In the case of U26C A67G A79G U109A A117C, the self-cleavage is reported as 1.31. Work on A6G A78G A117G yielded a self-cleavage of 1.97. In the case of U12G U20C C98U, the self-cleavage is reported as 0.35. In the case of A57U A78G U100C A136G, the self-cleavage is reported as 0.66. For U9C U15A U134C, the self-cleavage was 0.66. With A42G A94G U109A the self-cleavage was 0.41. A2G U13C A50G gave a self-cleavage of 1.97. G53A A64U G74U U91C U96G A107U showed a self-cleavage of 0.02. Work on U15C G41U A79G G88A yielded a self-cleavage of 0.02. Work on U26C A43U C145U yielded a self-cleavage of 0.84. For U20C C71U A124U, the self-cleavage was 1.18. In the case of U14C A92U G114U U130C, the self-cleavage is reported as 1.02. For A30G U109C A124G, the self-cleavage was 1.53.
